Measurements reported in the supplement of paper PMC12217912.
The other results are listed elsewhere or left out. Sequences were assembled here from the parent chain. Inactive controls read about 0.05.

B1: TEV protease; numbered along this chain (parent)
chain: MGESLFKGPRDYNPISSSICHLTNESDGHTTSLYGIGFGPFIITNKHLFRRNNGTLVVQSLHGVFKVKDTTTLQQHLVDGRDMIIIRMPKDFPPFPQKLKFREPQREERICLVTTNFQTKSMSSMVSDTSCTFPSGDGIFWKHWIQTKDGQCGSPLVSTRDGFIVGIHSASNFTNTNNYFTSVPKNFMELLTNQEAQQWVSGWRLNADSVLWGGHKVFMVKPEEPFQPVKEATQL

Variants of: B1
Experiment: raw area under fraction-flipped curve 0-4 h after induction (AUC4h, not background-subtracted), DNA-recorder readout of cleavage of the substrate (dimensionless); higher = more cleavage of the substrate by the protease variant
Settings: temperature: 34 °C; time window: 0-4 h after rhamnose induction
Experimental: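 In vivo DNA recorder in E. coli TOP10(DE3) ΔrhaA at 34 °C. Each TEVp single-site mutant (parent TEVp 0) is paired with a single-site variant of the 7-mer TEVs (canonical ENLYFQ|S). The substrate sits between flexible linkers in a Bxb1-sfGFP-TEVs-SsrA fusion, so cleavage stabilises Bxb1 and speeds flipping of a recombination array, read by NGS. The value is the raw area under the fraction-flipped curve over 0-4 h after rhamnose induction (AUC4h), with ≥20 reads per time point. It is not background-subtracted; inactive controls average about 0.047.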
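Also: Bxb1 expression induced with 0.2% (w/v) L-rhamnose at OD600 near 0.5, cultures sampled hourly, flipped fraction per protease–substrate barcode pair counted by paired-end Illumina sequencing.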

Row | Variant | area with substrate EALYFQS | area with substrate ECLYFQS | area with substrate EDLYFQS | area with substrate EELYFQS | area with substrate EGLYFQS | area with substrate EILYFQS | area with substrate EKLYFQS | area with substrate EMLYFQS | area with substrate EPLYFQS | area with substrate EQLYFQS | area with substrate ERLYFQS | area with substrate ESLYFQS | area with substrate ETLYFQS | area with substrate EVLYFQS | area with substrate EYLYFQS | area with substrate EHLYFQS | area with substrate ELLYFQS | area with substrate EWLYFQS | area with substrate EFLYFQS
1 | MGESLFKGPRDYNPISSSICHLTNESDGHTTSLYGIGFGPFIITNKFLFRRNNGTLVVQSLHGVFKVKDTTTLQQHLVDGRDMIIIRMPKDFPPFPQKLKFREPQREERICLVTTNFQTKSMSSMVSDTSCTFPSGDGIFWKHWIQTKDGQCGSPLVSTRDGFIVGIHSASNFTNTNNYFTSVPKNFMELLTNQEAQQWVSGWRLNADSVLWGGHKVFMVKPEEPFQPVKEATQL [H47F] | 0.047 | 0.0616 | 0.0597 | 0.0498 | 0.0635 | 0.056 | 0.0519 | 0.0443 | 0.0578 | 0.0672 | 0.0579 | 0.06 | 0.0558 | 0.0581 | 0.0446 |  |  |  | 
2 | MGESLFKGPRDYNPISSSICHLTNESDGHTTSLYGIGFGPFIITNKHLFRRNNGTLVVQSLHGVFKVKLTTTLQQHLVDGRDMIIIRMPKDFPPFPQKLKFREPQREERICLVTTNFQTKSMSSMVSDTSCTFPSGDGIFWKHWIQTKDGQCGSPLVSTRDGFIVGIHSASNFTNTNNYFTSVPKNFMELLTNQEAQQWVSGWRLNADSVLWGGHKVFMVKPEEPFQPVKEATQL [D69L] | 0.093 | 0.0857 | 0.0776 | 0.0923 |  | 0.0707 | 0.0877 | 0.0786 | 0.104 | 0.0561 | 0.0954 | 0.0781 |  | 0.0918 |  | 0.0851 | 0.069 | 0.0751 | 
3 | MGESLFKGPRDYNPISSSICHWTNESDGHTTSLYGIGFGPFIITNKHLFRRNNGTLVVQSLHGVFKVKDTTTLQQHLVDGRDMIIIRMPKDFPPFPQKLKFREPQREERICLVTTNFQTKSMSSMVSDTSCTFPSGDGIFWKHWIQTKDGQCGSPLVSTRDGFIVGIHSASNFTNTNNYFTSVPKNFMELLTNQEAQQWVSGWRLNADSVLWGGHKVFMVKPEEPFQPVKEATQL [L22W] | 0.0429 | 0.0416 | 0.0441 | 0.0464 |  | 0.0252 | 0.0524 | 0.0467 | 0.0596 | 0.0516 | 0.049 | 0.041 | 0.0576 | 0.0428 | 0.0472 |  | 0.0389 | 0.0548 | 0.0646
4 | MGESLFKGPRDYNPISSSICHLTNESDGHTTSLYGIGFGPFIITNKHLFRRNNGTLVVQSLHGVFKVKDTTTLQQHLVDGRDMIIIRMPKDFPPFPQKLKFREPQRAERICLVTTNFQTKSMSSMVSDTSCTFPSGDGIFWKHWIQTKDGQCGSPLVSTRDGFIVGIHSASNFTNTNNYFTSVPKNFMELLTNQEAQQWVSGWRLNADSVLWGGHKVFMVKPEEPFQPVKEATQL [E107A] | 0.143 | 0.0907 | 0.165 | 0.153 | 0.0626 | 0.117 | 0.134 | 0.119 | 0.118 | 0.115 | 0.114 | 0.0959 |  | 0.104 | 0.142 |  |  | 0.0799 | 
5 | MGESLFKGPRDYNPISSSICHLTNESDGHTTSLYGIGFGPFIITNKHLFRRNNGTLVVQSLHGVFKVKDTTTLQQHLVDGRDMIIIRMPKDFPPFPQKLKFREPMREERICLVTTNFQTKSMSSMVSDTSCTFPSGDGIFWKHWIQTKDGQCGSPLVSTRDGFIVGIHSASNFTNTNNYFTSVPKNFMELLTNQEAQQWVSGWRLNADSVLWGGHKVFMVKPEEPFQPVKEATQL [Q105M] | 0.122 | 0.1 |  | 0.103 | 0.0821 | 0.0981 | 0.0973 |  |  | 0.131 | 0.0505 | 0.104 | 0.103 | 0.0915 | 0.0662 | 0.105 | 0.0878 | 0.0903 | 0.115
6 | MGESLFKGPRDYNPISSSICHLTNESDGHTTSLYGRGFGPFIITNKHLFRRNNGTLVVQSLHGVFKVKDTTTLQQHLVDGRDMIIIRMPKDFPPFPQKLKFREPQREERICLVTTNFQTKSMSSMVSDTSCTFPSGDGIFWKHWIQTKDGQCGSPLVSTRDGFIVGIHSASNFTNTNNYFTSVPKNFMELLTNQEAQQWVSGWRLNADSVLWGGHKVFMVKPEEPFQPVKEATQL [I36R] | 0.0445 | 0.0437 |  | 0.0435 |  | 0.0474 | 0.0423 | 0.0597 | 0.0442 | 0.0468 | 0.0471 | 0.0582 | 0.0375 | 0.0447 |  |  | 0.0406 | 0.0604 | 
7 | MGESLFKGPRDYNPISSSICHLTNESDGHTTSLYGIGFGPFIITNKHLFRRNNGTLVVQSLHGVFKVKDTTTPQQHLVDGRDMIIIRMPKDFPPFPQKLKFREPQREERICLVTTNFQTKSMSSMVSDTSCTFPSGDGIFWKHWIQTKDGQCGSPLVSTRDGFIVGIHSASNFTNTNNYFTSVPKNFMELLTNQEAQQWVSGWRLNADSVLWGGHKVFMVKPEEPFQPVKEATQL [L73P] | 0.0778 | 0.0557 | 0.0467 |  | 0.0577 | 0.0505 | 0.0631 | 0.044 | 0.0494 | 0.0609 | 0.0718 |  | 0.0509 | 0.0577 | 0.0554 | 0.058 |  |  | 0.0663
8 | MGESLFKGPRDYNPISSSICHLTNESDGHTTSLYGIGFGPFIITNKHLFRRNNGTLVVQSLHGVFKVKDTTTLQQHLVDGRDMIIIRMPKDFPPFPQKLEFREPQREERICLVTTNFQTKSMSSMVSDTSCTFPSGDGIFWKHWIQTKDGQCGSPLVSTRDGFIVGIHSASNFTNTNNYFTSVPKNFMELLTNQEAQQWVSGWRLNADSVLWGGHKVFMVKPEEPFQPVKEATQL [K100E] | 0.106 | 0.117 |  |  | 0.102 | 0.09 |  |  | 0.0869 |  | 0.088 | 0.112 |  |  |  | 0.097 | 0.0759 |  | 0.0649
9 | MGESLFKGPRDYNPISSSICHLTNESDGHTTSLYGIGFGPFIITNKHLFRRNNGTLVVQSLHGVFKVKDTTTLQQHLVDGRDMIIIRMPKDFPPFPQKLKFREPQREERICLVTTNFQTKSESSMVSDTSCTFPSGDGIFWKHWIQTKDGQCGSPLVSTRDGFIVGIHSASNFTNTNNYFTSVPKNFMELLTNQEAQQWVSGWRLNADSVLWGGHKVFMVKPEEPFQPVKEATQL [M122E] | 0.115 | 0.0962 |  | 0.115 | 0.0924 | 0.0989 | 0.0928 | 0.124 | 0.128 | 0.102 | 0.0908 | 0.115 | 0.0989 |  | 0.136 | 0.121 | 0.0862 | 0.112 | 
